Laboratory results reported in the supplement of paper PMC3334620.
The full ranking holds about 33,000 sequences; the median of “E-score (-0.5 to 0.5)” is about -0.053, and the highest 2% start at about 0.37. The list shows a part of the results.

molecular target: Hap1 (UniProt P0CE41); test: PBM E-score (8-mer binding enrichment) (E-score (-0.5 to 0.5)); higher = stronger / more preferred TF binding; most listed sequences are background and not binding sites; settings: protein concentration: 200 nM; construct: GST-DNA-binding domain
Procedure: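 Universal 'all 10-mer' protein binding microarrays (Agilent AMADID 015681) probed with GST-tagged S. cerevisiae TFs (full-length or DBD) made by in vitro transcription/translation (PURExpress), about 100-200 nM. Bound TF was detected with fluorescent anti-GST. Each ungapped 8-mer (which stands for itself and its reverse complement) is scored by the PBM enrichment score (E-score), a modified Wilcoxon-Mann-Whitney statistic from -0.5 to +0.5, computed with the Universal PBM Analysis Suite. Scale: above 0.35 generally sequence-specific binding.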

Sequence of UniProt P0CE41 (P0CE41 whole entry, the tested form may be a part): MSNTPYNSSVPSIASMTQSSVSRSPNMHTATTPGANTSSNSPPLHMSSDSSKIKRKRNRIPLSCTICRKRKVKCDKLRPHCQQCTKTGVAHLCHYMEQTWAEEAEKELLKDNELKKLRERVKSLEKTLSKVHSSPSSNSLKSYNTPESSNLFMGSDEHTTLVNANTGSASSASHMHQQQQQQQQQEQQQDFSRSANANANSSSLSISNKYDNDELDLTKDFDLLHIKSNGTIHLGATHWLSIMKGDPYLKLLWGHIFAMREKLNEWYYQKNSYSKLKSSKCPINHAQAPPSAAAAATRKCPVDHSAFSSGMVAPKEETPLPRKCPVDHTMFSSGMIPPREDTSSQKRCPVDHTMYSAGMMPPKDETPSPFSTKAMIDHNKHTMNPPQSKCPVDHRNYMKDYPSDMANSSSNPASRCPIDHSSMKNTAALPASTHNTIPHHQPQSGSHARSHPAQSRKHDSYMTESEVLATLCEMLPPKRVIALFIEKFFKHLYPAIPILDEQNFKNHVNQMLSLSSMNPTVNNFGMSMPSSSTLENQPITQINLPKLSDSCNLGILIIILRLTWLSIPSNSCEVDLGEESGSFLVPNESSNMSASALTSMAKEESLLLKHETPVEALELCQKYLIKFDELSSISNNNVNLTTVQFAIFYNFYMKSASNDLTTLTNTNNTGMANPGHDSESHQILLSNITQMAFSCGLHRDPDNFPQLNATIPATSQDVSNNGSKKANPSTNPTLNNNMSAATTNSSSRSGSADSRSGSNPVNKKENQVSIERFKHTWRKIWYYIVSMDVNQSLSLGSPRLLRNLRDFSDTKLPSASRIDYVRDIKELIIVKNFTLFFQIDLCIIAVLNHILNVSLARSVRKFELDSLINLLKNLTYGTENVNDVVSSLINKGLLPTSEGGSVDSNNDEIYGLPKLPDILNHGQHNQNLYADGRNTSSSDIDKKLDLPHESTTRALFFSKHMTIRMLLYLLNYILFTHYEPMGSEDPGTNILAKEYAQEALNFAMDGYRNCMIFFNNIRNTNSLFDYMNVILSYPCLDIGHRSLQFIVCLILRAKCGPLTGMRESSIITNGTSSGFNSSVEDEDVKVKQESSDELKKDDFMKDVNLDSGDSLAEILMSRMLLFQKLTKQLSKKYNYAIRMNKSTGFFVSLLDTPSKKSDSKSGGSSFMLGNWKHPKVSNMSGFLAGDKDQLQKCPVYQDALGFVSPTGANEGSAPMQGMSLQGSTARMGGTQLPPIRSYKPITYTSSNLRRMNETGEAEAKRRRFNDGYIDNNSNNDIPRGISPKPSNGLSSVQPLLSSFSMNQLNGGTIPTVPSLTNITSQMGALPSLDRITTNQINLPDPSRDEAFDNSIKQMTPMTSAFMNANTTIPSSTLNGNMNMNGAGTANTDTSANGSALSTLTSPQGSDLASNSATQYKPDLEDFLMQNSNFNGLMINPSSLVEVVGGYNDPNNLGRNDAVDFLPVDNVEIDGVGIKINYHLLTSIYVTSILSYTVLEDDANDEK

Compared with TACGGACA, AGAATGTC is lower in “PBM E-score” value: 0.291 for the first, -0.086 for the second.

First: ATCTTGTA
Second: TAAGCCAA
The “PBM E-score” value of the first is lower: -0.181 for the first, -0.0972 for the second.

First: TACACGCA
Second: ACACAATA
The “PBM E-score” value of the first is lower: -0.152 for the first, -0.0991 for the second.

First: GACAGTGA
Second: CGCCATAA
The “PBM E-score” value of the first is lower: -0.109 for the first, -0.0284 for the second.

Going from GAGAACAC to GAACCACA, the “PBM E-score” value rises from -0.14 to -0.0552.

Going from TCGAAGCA to ACCCAGAT, the “PBM E-score” value rises from -0.306 to -0.142.

Going from ATAAGTCC to GACGTGAC, the “PBM E-score” value falls from 0.348 to -0.157.

Going from CGGACGTC to GGAGCGAA, the “PBM E-score” value falls from 0.258 to 0.00746.

Compared with ATGGCATC, AGATTTCA is higher in “PBM E-score” value: -0.106 for the first, 0.0182 for the second.

Going from TATTAAGA to ATCTATTC, the “PBM E-score” value falls from 0.041 to -0.146.

Going from GTATTTGA to CCTGTTCC, the “PBM E-score” value rises from -0.261 to -0.152.

Going from CGTCGCAC to ACGGGATG, the “PBM E-score” value rises from 0.00416 to 0.0154.

First: CGGTACGC
Second: GGGTCACA
The “PBM E-score” value of the first is higher: 0.24 for the first, -0.147 for the second.

Compared with GGGCAGTA, CGGGCATC is higher in “PBM E-score” value: 0.0359 for the first, 0.0909 for the second.

First: GATAATAA
Second: CGGAAGTA
The “PBM E-score” value of the first is lower: 0.182 for the first, 0.38 for the second.

Going from CCCCACCG to GATATTGC, the “PBM E-score” value falls from 0.209 to 0.187.

Compared with GCCGAAGC, AGGTGCCG is lower in “PBM E-score” value: 0.288 for the first, 0.196 for the second.

First: CCGTAGAG
Second: CGCTAAAC
The “PBM E-score” value of the first is lower: -0.00236 for the first, 0.161 for the second.

Going from CAGTAAGC to ATGCCCAG, the “PBM E-score” value rises from -0.0562 to -0.0272.

Compared with GTTCACCA, AATTCATC is higher in “PBM E-score” value: -0.136 for the first, -0.0321 for the second.

Going from AGCCCCAG to AATGAGCA, the “PBM E-score” value rises from -0.0767 to -0.0376.

Going from GCGAAGAC to CGTTCTTC, the “PBM E-score” value falls from 0.134 to -0.0849.

Going from GAAAACCC to TGCGTAAA, the “PBM E-score” value falls from 0.132 to -0.0968.

Compared with TATGCTCA, ATGTCCAA is higher in “PBM E-score” value: -0.0315 for the first, -0.0231 for the second.

Compared with CCTTGCAA, GCTGTGAA is higher in “PBM E-score” value: -0.308 for the first, -0.184 for the second.

Going from ATTCAAAC to ACGGGAGA, the “PBM E-score” value falls from -0.0188 to -0.0781.

Going from CCCAACCA to ACAGGTTA, the “PBM E-score” value falls from -0.00113 to -0.297.

Compared with AGTAGTCG, AGGAGTAC is lower in “PBM E-score” value: -0.0254 for the first, -0.207 for the second.

First: AATTTTAT
Second: ACCAATGA
The “PBM E-score” value of the first is higher: 0.187 for the first, -0.187 for the second.

First: CACCATTC
Second: ATAGTTGG
The “PBM E-score” value of the first is higher: -0.213 for the first, -0.217 for the second.

Compared with AGTCCGAA, CCCAAGGG is lower in “PBM E-score” value: 0.416 for the first, -0.232 for the second.

Going from GTGACGAA to ACCGGGAC, the “PBM E-score” value rises from -0.168 to 0.184.

Compared with AATAAGAG, AGTGCCAT is lower in “PBM E-score” value: 0.14 for the first, -0.0559 for the second.

Going from GACCAATA to GCACTAGC, the “PBM E-score” value rises from -0.0319 to -0.00669.

First: CCGCCCTC
Second: GGCTGCTA
The “PBM E-score” value of the first is higher: 0.0458 for the first, -0.0615 for the second.

First: CCGTCGGA
Second: CAAGTTTC
The “PBM E-score” value of the first is higher: 0.335 for the first, -0.18 for the second.

Going from ACCATGCT to CTAGCTGC, the “PBM E-score” value rises from -0.0871 to -0.0293.

Compared with ACCCACAA, GACTGACC is lower in “PBM E-score” value: -0.0145 for the first, -0.135 for the second.

Going from AGAGCAGC to TCCATTCA, the “PBM E-score” value rises from -0.271 to -0.128.

First: CAACTCGG
Second: ATACGTCA
The “PBM E-score” value of the first is higher: 0.197 for the first, 0.0245 for the second.

Compared with AGCGGTCG, ATGTTCTA is lower in “PBM E-score” value: 0.123 for the first, -0.02 for the second.

First: AAACTTGC
Second: ACCTCCCA
The “PBM E-score” value of the first is higher: -0.0544 for the first, -0.27 for the second.

Compared with CCTTATTA, AAGGCATT is lower in “PBM E-score” value: -0.0477 for the first, -0.24 for the second.

Compared with AAAGGTGT, CAGGACTC is lower in “PBM E-score” value: -0.0258 for the first, -0.181 for the second.

Compared with CCCCAGAG, ACCCACTC is higher in “PBM E-score” value: -0.261 for the first, 0.00284 for the second.

Going from AATTGACT to ATCGGCCA, the “PBM E-score” value rises from -0.056 to 0.253.

Going from ACCAGCCA to CACGTACC, the “PBM E-score” value rises from -0.222 to -0.172.

Going from GACGACGC to CGTGTCAC, the “PBM E-score” value falls from -0.0193 to -0.111.

Compared with GCTTTCCC, CTTGTACC is lower in “PBM E-score” value: 0.0688 for the first, -0.086 for the second.

Compared with TACAGCGA, CGGGTGTA is higher in “PBM E-score” value: -0.177 for the first, 0.354 for the second.

First: AAATGGCT
Second: ATTCAATG
The “PBM E-score” value of the first is lower: -0.188 for the first, -0.0713 for the second.

First: AAGGTTAC
Second: ATCGTCTC
The “PBM E-score” value of the first is lower: -0.0661 for the first, 0.125 for the second.

Going from ACTACTAC to AGCTCGTA, the “PBM E-score” value falls from -0.0209 to -0.255.

Going from TGCATGCA to CGTGGCAC, the “PBM E-score” value falls from -0.0519 to -0.144.

Going from CAGAGTCC to CCCAGCTC, the “PBM E-score” value rises from 0.0584 to 0.0829.

Going from GAATCCTC to CCCTAGCC, the “PBM E-score” value falls from -0.0731 to -0.138.

First: CTTTAGGC
Second: ACGTACAA
The “PBM E-score” value of the first is higher: -0.0579 for the first, -0.0674 for the second.

First: GCCCGGCA
Second: ATGACGCA
The “PBM E-score” value of the first is higher: 0.25 for the first, -0.147 for the second.

Going from CTCAACGA to ATGGGAGG, the “PBM E-score” value falls from -0.114 to -0.157.

First: CTATTACC
Second: ACGGGTAC
The “PBM E-score” value of the first is higher: 0.119 for the first, -0.113 for the second.

Compared with GGGCTGAC, AAGTAGAG is lower in “PBM E-score” value: 0.138 for the first, -0.289 for the second.

First: TAAAATGA
Second: CCAGTGGC
The “PBM E-score” value of the first is higher: 0.00088 for the first, -0.175 for the second.

Compared with AAGGTCGG, AGCTTCTA is lower in “PBM E-score” value: 0.152 for the first, -0.0403 for the second.

First: AATAAGTG
Second: ACACATCT
The “PBM E-score” value of the first is lower: -0.212 for the first, -0.0207 for the second.

Compared with CCCACTAA, AGAAATGA is lower in “PBM E-score” value: 0.00959 for the first, -0.239 for the second.

Going from TACCAGAA to ATGACCCC, the “PBM E-score” value rises from -0.0124 to 0.061.

Going from CGTTCGAC to ACCGACTC, the “PBM E-score” value rises from -0.0605 to 0.0952.

First: AGACATAG
Second: TCAATGAA
The “PBM E-score” value of the first is higher: -0.0261 for the first, -0.123 for the second.

Compared with ATTGCGCC, AGCGGCTA is lower in “PBM E-score” value: 0.14 for the first, 0.0823 for the second.

Compared with AGAACACA, AGGTTAGC is higher in “PBM E-score” value: -0.215 for the first, -0.063 for the second.

Compared with CTATGTGA, CGAACATA is higher in “PBM E-score” value: -0.203 for the first, 0.155 for the second.

Compared with CAGTCAAG, GGATCCCA is higher in “PBM E-score” value: -0.257 for the first, 0.0514 for the second.

First: GCACCTAC
Second: TAGACCAA
The “PBM E-score” value of the first is higher: -0.098 for the first, -0.201 for the second.

Going from CAGTGATG to AAAAAATC, the “PBM E-score” value rises from -0.328 to 0.0109.

Going from GGGGGGAC to CCGCTGAG, the “PBM E-score” value rises from -0.203 to 0.0237.

Compared with ACTTGGAC, ACCTTCTC is lower in “PBM E-score” value: 0.106 for the first, -0.0081 for the second.

Compared with ACCTGCCG, CGCGGCAA is higher in “PBM E-score” value: -0.0501 for the first, 0.223 for the second.

Going from GTACTTGA to CCTCGTAG, the “PBM E-score” value falls from -0.199 to -0.307.

First: ACTACATG
Second: ATTTCATA
The “PBM E-score” value of the first is lower: -0.16 for the first, -0.114 for the second.

Going from GTCAGGCA to CAGTCGGC, the “PBM E-score” value rises from -0.182 to 0.238.

First: ACAAAGAG
Second: CGGATACG
The “PBM E-score” value of the first is lower: -0.212 for the first, 0.228 for the second.

Compared with ATCTACGG, CCAGCCAA is lower in “PBM E-score” value: 0.299 for the first, -0.0334 for the second.

Going from AGCTCACT to AGTTCGTG, the “PBM E-score” value rises from -0.218 to -0.0492.

Going from CGTTGCTA to CTTAACGA, the “PBM E-score” value rises from -0.189 to 0.0142.

Compared with CGTGTTGA, AGCTATCG is higher in “PBM E-score” value: -0.00374 for the first, 0.21 for the second.

Going from CGTAGTGC to GATATGCC, the “PBM E-score” value rises from 0.0151 to 0.171.
